In the supplement of paper PMC3334620:
Over roughly 33,000 sequences, “E-score (-0.5 to 0.5)” has its median near -0.032; the highest 2% begin near 0.36. The list shows a part of the results.

Biological target: T1, Sko1 (UniProt Q02100)
T1 sequence: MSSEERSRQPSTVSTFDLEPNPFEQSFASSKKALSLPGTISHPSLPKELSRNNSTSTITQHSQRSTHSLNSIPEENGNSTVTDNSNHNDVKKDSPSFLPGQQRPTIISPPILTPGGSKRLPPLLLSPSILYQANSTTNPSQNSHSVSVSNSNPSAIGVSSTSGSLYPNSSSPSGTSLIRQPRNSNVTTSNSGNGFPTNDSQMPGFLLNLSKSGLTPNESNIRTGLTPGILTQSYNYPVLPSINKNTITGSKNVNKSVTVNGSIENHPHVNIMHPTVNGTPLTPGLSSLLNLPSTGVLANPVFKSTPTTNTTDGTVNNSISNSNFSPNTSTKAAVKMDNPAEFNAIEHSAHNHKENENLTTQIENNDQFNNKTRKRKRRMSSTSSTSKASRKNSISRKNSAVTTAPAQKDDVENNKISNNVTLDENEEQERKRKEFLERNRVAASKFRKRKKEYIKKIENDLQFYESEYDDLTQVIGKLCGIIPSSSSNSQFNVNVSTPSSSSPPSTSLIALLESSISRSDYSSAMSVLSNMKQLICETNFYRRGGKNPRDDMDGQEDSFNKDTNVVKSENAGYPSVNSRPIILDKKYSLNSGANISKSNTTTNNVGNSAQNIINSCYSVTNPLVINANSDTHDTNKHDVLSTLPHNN
Assay: PBM E-score (8-mer binding enrichment) (E-score (-0.5 to 0.5)); higher = stronger / more preferred TF binding; most listed sequences are background and not binding sites
Details: protein concentration: 200 nM; construct: GST-full length
Procedure, shortened: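 Bound GST-tagged yeast transcription factors, applied at about 100-200 nM to double-stranded universal all-10-mer Agilent arrays, were detected with fluorescent anti-GST. Scans were normalised with masliner. A modified Wilcoxon-Mann-Whitney statistic, the E-score, was assigned to each ungapped eight-base word pooled with its reverse complement by the Universal PBM Analysis Suite.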

Sequence	PBM E-score
CGAGCCTA	-0.052
AAGAGTTA	0.0657
AATGGGCG	-0.114
CCTTTAGC	-0.148
CATACCGC	0.0364
AGCTCGTG	-0.0961
GCCTCCAC	-0.0544
AAACGTTT	0.275
CTGCACGA	-0.121
ACCGATCC	-0.218
GAGGAGAC	-0.361
CTGTGCCC	-0.185
AGTGTTCA	0.0288
ACCCGTCC	-0.237
GAAACCAA	-0.045
ACGTGCTG	0.337
AAGCGCGC	0.0289
TCCTAGAA	-0.196
ATAGGGCC	-0.211
TCCGGGCA	-0.282
CCGAGTTC	0.00182
CGATACGC	0.188
CCTCGATC	-0.22
CACCAATC	0.0369
ACGAGTCT	-0.154

Sequence	PBM E-score
CTGGCAGA	-0.122
CACGTTAG	0.2
ACAGCGGT	-0.21
GGCGTTAA	-0.0249
GTCAACTA	0.152
ATCACGGA	0.126
ACAGAGCC	-0.198
CCGTGTCG	-0.319
ACTCGATA	0.08
CATCGAAA	0.111
AATGTCGG	0.0603
CCCCTATA	-0.105
AATACGCG	0.287
TATCATCA	0.272
GAATCAGC	0.0296
ATATTGGG	-0.146
CCAAAGCG	-0.105
CATGTCAA	0.208
AGTTAACT	0.112
AATGACCC	-0.124
ATCTCAAC	0.168
ACAGGGTG	-0.322
CCCTATTA	0.00185
AGAGCGCG	-0.0798
CAGGCCAA	-0.129

Sequence	PBM E-score
CAATGAAC	0.0222
ACACCACG	0.063
ACCATGAG	-0.117
CTATCGTA	0.256
CAATTTTC	-0.0176
AGATCCTC	-0.297
AGGGGGCA	-0.346
ATCTGTTA	0.175
CGATCCCA	-0.12
AAGAAACT	0.0413
AACATAAT	0.204
ATTATGGC	0.196
CAAAATGA	0.186
GTGGTATA	0.0815
CCCCCTGA	-0.246
ACGAGCAA	-0.149
CCTTATCC	-0.205
GCCCAGGC	-0.259
ACTGCAAT	0.02
ACCACTGG	0.0723
CGCCGAAG	-0.0557
CGACCACA	-0.0731
GACGCGCC	0.143
ACTCGCGA	0.13
AGCAGCAG	-0.0363

Sequence	PBM E-score
ACAACGAA	0.0922
ACAATTCC	0.0028
ATCGTTTA	0.288
AGCTGGAG	-0.281
ATGCGCCC	-0.045
TGAATAAA	0.152
GACAGTAA	0.143
ATGAAGGG	-0.161
CGTTGGGA	0.0186
CTACGGAG	-0.193
GCCAGACC	-0.266
AGGGCTTG	-0.123
CAAGCTAC	0.0185
CGGGATAG	-0.138
ATACAAAT	0.255
TAATAGCA	-0.0248
CGATGAAG	-0.0341
AAGCATCG	-0.0304
ACCGATCT	-0.204
ATCTTCCG	0.00021
ACTGTTGG	-0.277
ATTTCTTA	0.0947
GCCCCCGA	-0.363
AGACGAAT	0.17
CCTTAACA	0.0994

Sequence	PBM E-score
AGGGGATA	-0.121
CCGCAATC	-0.102
AGAGTCTC	-0.278
ATTTAGTG	0.0842
AGGTGTAT	0.075
ATGATATA	0.279
CTACTCCC	-0.166
CGTAAACG	0.319
CTTGGGAC	-0.261
ATAGCACA	0.0512
ACGGTTAC	0.139
GACCGCCC	-0.324
CTACCGTA	0.231
ACCGTTTC	-0.0682
AAGTCTGT	0.0213
CGGGTTGC	0.0494
CCGACAGC	-0.292
AAATAAAC	0.185
ATACGAAG	0.223
CCCTTTAG	-0.303
CTACTAGA	0.0659
CAAATATG	0.128
CTAACCAG	-0.0782
AAGACGAA	0.139
TAATGCAA	0.0655

Sequence	PBM E-score
ATCTCTCC	-0.0492
AAACAGGA	-0.0484
GCCAACGC	-0.0889
GATCAATC	-0.0437
CCGTAGGA	-0.29
CAGCGCTG	0.0627
CGTGGCCA	0.0106
AATGCGCC	-0.13
GGAAGGCA	-0.221
CCATTTTA	0.0503
ATTTCTCC	-0.109
AACTTTCT	0.0712
ATAGTAGC	-0.0277
CGGATCGC	-0.0397
GGACGGCA	-0.0181
GTGTGACA	0.12
AAGCTGAA	-0.217
ACTTGCCG	-0.161
ATCGAGTG	0.0839
GGAGCACC	-0.257
CTGACAAC	-0.0757
AGTATGGC	-0.181
AGGTTTCG	-0.0654
ATCAGGAC	0.00553
ATCGCCGC	-0.118

Sequence	PBM E-score
GTCCGCGA	-0.285
AAGGTGCC	-0.153
GAGAATGA	0.163
ACGGCTTC	-0.0896
GGCCTCCA	-0.255
GTTGATAA	0.198
CTGCAGCC	-0.0988
CGACCACG	0.131
TCTTGTCA	0.114
AACGTCCG	0.0592
GATCACTA	-0.0212
CGATAATA	0.085
TAAATTTA	0.236
CGTCCGTC	-0.102
AGTCCGCA	-0.0685
CTTCGTCC	-0.226
GAGCGGTA	-0.0928
ACAAAAGA	0.153
TAAAGCGA	0.122
ATGGGTAC	0.0838
CACGATGC	-0.0139
AACCATCT	-0.21
